Assay results published in the supplement of paper PMC10369915.
This is one part of the list. Cut-off read from the data, not from the text of the source: active = 3.2 or more and inactive = the rest. Most of these values are background signal.

B1: PRKRIP1_Y90_R87W_YF (peptide)
chain: LRWREYQRQDF
B2: PRNP_Y218 (peptide)
chain: MCITQYERESQ
B3: PRNP_Y218_Q217R (peptide)
chain: MCITRYERESQ
B4: PROM1_Y34 (peptide)
chain: PKAWNYELPAT
B5: PROM1_Y34_A31S (peptide)
chain: PKSWNYELPAT
B6: PROS1_Y259_N258S_YF (peptide)
chain: QLCVSYPGGFT
B7: PROS1_Y266 (peptide)
chain: GGYTCYCDGKK
B8: PROS1_Y266_C265R (peptide)
chain: GGYTRYCDGKK
B9: PROS1_Y266_C265W (peptide)
chain: GGYTWYCDGKK
B10: PROS1_Y266_C265W_YF (peptide)
chain: GGFTWYCDGKK
B11: PRPF8_Y871 (peptide)
chain: LIEQAYDNPHE
B12: PRPH2_Y184 (peptide)
chain: WISNRYLDFSS
B13: PRPH2_Y184_Y184S (peptide)
chain: WISNRSLDFSS
B14: PRPS1_Y146 (peptide)
chain: PVDNLYAEPAV
B15: PRPS1_Y311 (peptide)
chain: GESVSYLFSHV
B16: PRSS3_Y232 (peptide)
chain: ECKASYPGKIT
B17: PRSS3_Y232_Y232C (peptide)
chain: ECKASCPGKIT
B18: PSEN1_Y154_L153V_YF (peptide)
chain: LLVVVYKFRCF

Molecular target: SHP2 C-SH2 domain E139D
Experiment: enrichment score (SH2-bound / input frequency) (ratio); bacterial display of known human phosphotyrosine sites (pTyr-Var adds point mutants) read by sequencing; higher = stronger binding; tyrosines were phosphorylated by kinases first
Conditions: peptide library: pTyr-Var
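Note: displayed peptides selected on beads carrying the immobilized SH2 domain, with library peptides lacking any tyrosine serving as negative controls.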

Enrichment score, inactive:
B1 2.74
B2 0.739
B3 0.609
B4 0.929
B5 0.63
B6 0.81
B7 0.784
B8 0.712
B9 0.789
B10 0.635
B11 0.669
B12 1.46
B13 1.04
B14 0.586
B15 1.02
B16 0.653
B17 0.769
B18 2.67

Molecular target: SHP2 C-SH2 domain wild-type
Experiment: as above
Conditions: peptide library: pTyr-Var

Enrichment score, inactive:
B1 2.38
B2 0.574
B3 0.415
B4 0.899
B5 0.449
B6 1.37
B7 1.1
B8 0.77
B9 0.984
B10 0.899
B11 0.763
B12 1.15
B13 1.01
B14 0.637
B15 1.47
B16 0.583
B17 0.753
B18 2.82

Molecular target: SHP2 N-SH2 domain L43F
Experiment: as above
Conditions: peptide library: pTyr-Var

Enrichment score, inactive:
B1 2.81
B2 0.607
B3 0.469
B4 0.642
B5 0.67
B6 0.935
B7 0.839
B8 0.672
B9 0.769
B10 0.687
B11 0.852
B12 1.18
B13 1.03
B14 0.657
B15 0.89
B16 0.639
B17 0.792
B18 2

Molecular target: SHP2 N-SH2 domain T42A
Experiment: as above
Conditions: peptide library: pTyr-Var

Enrichment score, inactive:
B1 2.4
B2 0.699
B3 0.433
B4 0.965
B5 0.533
B6 0.726
B7 0.822
B8 0.779
B9 0.865
B10 0.601
B11 0.61
B12 1.19
B13 1.23
B14 0.454
B15 1.65
B16 0.699
B17 0.691
B18 2.37

Molecular target: SHP2 N-SH2 domain T52S
Experiment: as above
Conditions: peptide library: pTyr-Var

Enrichment score, inactive:
B1 2.88
B2 0.639
B3 0.52
B4 0.793
B5 0.692
B6 0.991
B7 0.737
B8 0.791
B9 0.878
B10 0.542
B11 0.751
B12 1.09
B13 0.935
B14 0.767
B15 1.02
B16 0.754
B17 0.965
B18 2.79

Molecular target: SHP2 N-SH2 domain wild-type
Experiment: as above
Conditions: peptide library: pTyr-Var

Enrichment score, inactive:
B1 2.42
B2 0.746
B3 0.478
B4 1.08
B5 0.426
B6 1.15
B7 1.24
B8 0.948
B9 1.39
B10 1.06
B11 0.936
B12 1.11
B13 1.13
B14 0.687
B15 0.956
B16 0.634
B17 0.767
B18 2.76
